In PubChem BioAssay AID493208 (National Center for Advancing Translational Sciences (NCATS), 2011):
In all, about 44,000 compounds went through this assay and about 340 (0.77%) were called active. Roughly 5% stayed inconclusive and do not appear here. Calls come from the whole dose curve; as a rule, active = well fitted inhibition curve with a large enough effect; inconclusive = small, poorly fitted or top-dose-only effect; inactive = flat fitted curve, though single readings scatter. The list shows a part of the results.

Test: Acumen qHTS Assay for Inhibitors of the mTORC1 Signaling Pathway in MEF (Tsc2-/-, p53-/-) Cells: Sytravon; note: nearly all actives have a fitted effect of over 50% in size;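 for activity change, negative = inhibition: plate controls were DMSO for no effect and rapamycin for full effect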
Conditions: phospho-rpS6 immunofluorescence/PI, 24 h; series mostly up to 38.3 µM; activity change, negative = inhibition: at the top concentration
Excerpt: NIH Molecular Libraries Probe Production Centers Network [MLPCN] NIH Chemical Genomics Center [NCGC] MLPCN Grant: NS059428-01 Assay Submitter (PI): Blenis, John; Hoffman, Greg; Harvard University NCGC Assay Overview: The mammalian target of rapamycin (mTOR) is an intracellular serine/threonine kinase Aberrant regulation of mTOR signaling plays a causative role in a number of human diseases, including cancer, benign tumors such as lymphangioleiomyomatosis (LAM) and Tuberous Sclerosis Complex (TSC), and metabolic diseases such as diabetes and obesity. This project aims to identify inhibitors of ribosomal protein S6 (rpS6) phosphorylation. The phosphorylation of rpS6 is a key event downstream of mTOR activation. The assay uses a phospho-specific antibody of phospho-rpS6 to detect inhibitors of mTOR activation. Mutations in the Tsc1 and Tsc2 genes are the underlying genetic lesions responsible for TSC, causing constitutive activation of the mTORC1 pathway and leading to profound effects on cell metabolism. Aberrant metabolism in cancer has recently received significant attention as a target to develop therapeutic agents in the treatment of cancer.1 As Tsc2-/- cells have lost the ability to respond to energy and growth factor deprivation, these cells are unable to properly down regulate cellular biosynthetic processes in response to metabolic stress, and are thus extremely sensitive to glucose deprivation-induced death.2 A central goal of this project is to explore the unique cell survival and metabolic properties of cells with Tsc1 or Tsc2 by screening for compounds that selectively target the Tsc2-/- MEFs by screening both Tsc2-/- and WT MEF cell lines. We hope to better understand these aspects of TSC physiology in order to exploit them for therapeutic benefit.
NCGC Acumen Assay Protocol Summary: For quantitative high throughput analysis of mTORC1 signaling, we developed a cell-based assay for immuno-fluorescence based detection of rpS6 phosphorylation on the Acumen Explorer that will be used a platform for the primary small molecule screen. Mouse embryonic fibroblasts (MEFs) are cultured in 1536-well plates using DMEM + 10% FBS. Twenty-four hrs after plating, test compounds (solubilized in DMSO) are delivered and incubated with the cells for 24 hrs at 37 degree Celsius. Following the incubation, media with compound is aspirated and the cells are fixed in 4% paraformaldehyde (PFA) containing PBS + 0.2% TX-100. Next, PFA is aspirated, cells are washed two times with PBS plus 0.2% TX-100 and the cells are blocked for 1 hr at room temperature (blocking buffer: LiCOR Blocking Buffer plus 0.2% TX-100). […] Cells are washed two times with PBS plus 0.2% TX-100, and stained with 10 uM propidium iodide (PI) for 20-25 minutes for cell number measurement (1:500 dilution of Hoescht staining is also added for IN Cell imaging). The plates are scanned on the Acumen Explorer laser scanning instrument (TTP Labtech) using the 488nm laser for simultaneous excitation of the Alexa-488 and PI. […] The normalized phospho-S6 staining is calculated as the ratio of the integrated Alexa 488 intensity divided by the integrated PI intensity for the single concentration rapamycin control (7.5 nM) and DMSO columns. […] Inhibition of the pathway is defined based on the normalized phospho-S6 intensity in rapamycin treated cells. Active cells are defined as those with a normalized phospho-S6 staining above this threshold, and each treatment is reported as the % positive cells in the well, where thresholds are defined by selecting wells with the highest and lowest signal and differentiating between the % non-active and % active populations. In addition to the pathway specific phospho-S6 endpoint, the number of PI stained cells from the Acumen is recorded as a measure of cell viability. The primary screen was performed with a MEF cell line in a defined genetic background, Tsc2-/-, p53-/- cell line stably transfected with an empty vector control (Tsc2-/- MEF).
Potency is the fitted concentration of half-maximal effect.

Row | SMILES | activity change, negative = inhibition | Potency
1 | Cc1ccc(-n2nc3c(=O)n(CCCC(=O)NCc4ccc(F)cc4)nc(C)c3c2C)cc1 | inactive: -4.55% | –
2 | Cc1cc(C)c(S(=O)(=O)NCC(c2ccco2)N2CCN(c3ccccc3)CC2)c(C)c1 (stereo not drawn) | inactive: 0.476% | –
3 | O=C(CN1CCN(Cc2ccc(F)cc2)C1=O)NCc1ccccc1 | inactive: -12.9% | –
4 | Cc1ccc2c(c1)-c1onc(C(=O)N3CCN(c4cccc(C)c4C)CC3)c1CO2 | inactive: 5.36% | –
5 | Cc1cc(C(F)(F)F)c2c(N)c(C(=O)Nc3c(Cl)cccc3Cl)sc2n1 | inactive: 2.46% | –
6 | COC(=O)c1c(NC(=O)c2c(OC)cccc2OC)sc2c1CCCC2 | inactive: 2.17% | –
7 | CC1CCCCN1S(=O)(=O)c1ccc2[nH]c(=O)cc(C(=O)NCCc3ccc(Cl)cc3)c2c1 (stereo not drawn) | inactive: -3.8% | –
8 | CC(=O)c1cccc(Nc2ncnc3c2cnn3-c2cccc(Cl)c2)c1 | inactive: 12.3% | –
9 | C=Cc1ccc(Cn2c(C(=O)OC)cc3sc(C)cc32)cc1 | inactive: -9.72% | –
10 | CC(C)OCCCNC(=O)CN1C(=O)CSc2ccc(S(=O)(=O)N3CCOCC3)cc21 | inactive: -1.95% | –
11 | COc1cccc(NC(=O)c2oc3ccc(S(=O)(=O)N4CCOCC4)cc3c2C)c1 | inactive: 7.75% | –
12 | CCc1ccc(Nc2nc3c(S(=O)(=O)c4cccc(Cl)c4)nnn3c3ccsc23)cc1 | inactive: 1.87% | –
13 | CNc1nc(Oc2ccc(=O)[nH]n2)nc(N2CCOCC2)n1 | inactive: 0.404% | –
14 | COc1ccc(-n2cc(C(=O)Nc3ccccc3C#N)c3ccccc3c2=O)cc1 | inactive: -0.505% | –
15 | O=C(c1cccc([N+](=O)[O-])c1)N1CCN(CCc2ccncc2)CC1 | inactive: 1.93% | –
16 | CCOc1ccccc1NC(=O)c1nn(-c2ccc(OC)cc2)c(=O)c2c1c1ccccc1n2C | inactive: 1.09% | –
17 | CCOc1ccc(NC(=O)Cn2c(=O)n(Cc3ccccc3)c(=O)c3c4c(sc32)CN(C(C)=O)CC4)cc1 | inactive: -14.2% | –
18 | COc1cccc(-n2cc(C(=O)Nc3ccccc3C(N)=O)c3ccccc3c2=O)c1 | inactive: 11.7% | –
19 | Cc1nc(SCCOc2ccc(Cl)cc2)[nH]c(=O)c1Cc1ccccc1 | inactive: 7.62% | –
20 | Cc1ccccc1CNC(=O)Cn1cc2c(n1)-c1c(oc(C(=O)N3CCCC3)c1C)CC2 | inactive: -6.84% | –
21 | COc1ccccc1NC(=O)C1=C(C)Nc2ncnn2C1c1sccc1C (stereo not drawn) | inactive: 3.53% | –
22 | COc1ccc(N2CC(NC(=O)C3CCCC3)CC2=O)cc1 (stereo not drawn) | inactive: -0.638% | –
23 | COc1ccc(OC)c(CNC(=O)CCC(=O)N2Cc3ccccc3Oc3ncccc32)c1 | inactive: -2.05% | –
24 | COc1ccc2nc(NC(=O)c3nc(SCc4cccc(C)c4)ncc3Cl)sc2c1 | inactive: 3.5% | –

Row | SMILES | activity change, negative = inhibition | Potency
25 | COc1ccc(N(CC(=O)N2CCN(c3ccc(F)cc3)CC2)S(=O)(=O)c2c(C)nn(C)c2C)cc1 | inactive: -0.649% | –
26 | Cc1cc(C)cc(NC(=O)CN(C)S(=O)(=O)c2ccc3c(c2)CCC(=O)N3)c1 | inactive: -11.5% | –
27 | Cc1cccc(C(=O)Nc2sc3c(c2C(=O)O)CCCC3)c1 | inactive: 6.54% | –
28 | COc1cccc(CNC(=O)c2cccc(NC(=O)c3nsc4ccccc34)c2)c1 | inactive: 2.84% | –
29 | COc1cc(Cl)c(NC(=O)CN(C)S(=O)(=O)c2ccc3[nH]c4c(c3c2)CCCC4)c(OC)c1 | inactive: -2.1% | –
30 | CCCOc1ccc(CNC(=O)Cn2c(=O)oc3ccccc32)cc1 | inactive: -0.255% | –
31 | Cc1ccc(CNC(=O)c2cnn(-c3ccc(F)cc3F)c2C2CCN(C(=O)OC(C)(C)C)CC2)cc1 | inactive: 0.561% | –
32 | CCCOc1ccc(C2C(=O)N(C3CCCCC3)CC(=O)N2CCC2=CCCCC2)cc1OC (stereo not drawn) | inactive: 0.302% | –
33 | CCOC(=O)C(CC)Sc1nnc2[nH]c(=O)cc(C)n12 (stereo not drawn) | inactive: -1.29% | –
34 | COc1cccc(CNC(=O)CC(c2ccc(C)cc2)N2Cc3ccccc3C2=O)c1 (stereo not drawn) | inactive: -10.1% | –
35 | COc1ccc(NS(=O)(=O)c2ccc3c(c2)n(C)c(=O)c(=O)n3C)cc1Cl | inactive: 0.377% | –
36 | O=C(CSc1n[nH]c(-c2ccccc2)n1)NCCc1ccccc1 | inactive: -10.9% | –
37 | COc1cc(-c2nc3cnccn3c2Nc2ccc(C(C)C)cc2)ccc1O | – | active: 14.7 µM
38 | COc1cccc(CNC(=O)CCS(=O)(=O)c2cc3c4c(c2)CCN4C(=O)CC3)c1 | inactive: 5.67% | –
39 | CCOC(=O)c1cc2c(=O)n3ccccc3nc2n(CC2CCCO2)c1=NC(=O)c1ccccc1F (stereo not drawn) | inactive: -0.839% | –
40 | COc1ccc(CNC(=O)C(C)n2nc(C)c3sc4ccccc4c3c2=O)cc1OC (stereo not drawn) | inactive: -2.22% | –
41 | Cc1ccccc1NC(=O)CSc1nnc(-c2cccc(Cl)c2)o1 | inactive: -3.78% | –
42 | COc1ccccc1-c1ccnc2c(-c3ccc(Br)cc3)c(C)nn12 | inactive: -0.929% | –
43 | CCc1ccc(Cn2c(CNS(=O)(=O)c3ccc(Cl)s3)nc3cccnc32)cc1 | inactive: -19.7% | –
44 | Cc1csc2nc(-c3cccc(NC(=O)c4ccccc4F)c3)cn12 | inactive: 0.579% | –
45 | CC(C)(C)c1ccc(S(=O)(=O)N2CCN(C(=O)c3cc(-c4ccc(Br)cc4)n[nH]3)CC2)cc1 | inactive: 0.204% | –
46 | O=C(CSc1nc(O)c(C/C=C/c2ccccc2)c(=O)[nH]1)Nc1cccc(F)c1 | inactive: -3.03% | –
47 | CCOc1ccc(NC(=O)c2noc3c2CSc2ccccc2-3)cc1 | inactive: -1.53% | –
48 | O=C(NCc1ccc(Cl)cc1)C1CCN(S(=O)(=O)c2ccc3c(c2)CCCN3C(=O)C2CCC2)CC1 | inactive: -3.25% | –
